Source: PubChem BioAssay AID720647 (Broad Institute, 2013)
Screen size: about 380,000 compounds; about 1,300 (0.34%) were called active. The inconclusive results got no clear call from the source; some entries with a clear call stand among them for comparison.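 Rule for the calls: active = drop in luminescence signal, shown as inhibition above about 50% in the replicate tests (limit read from the data, passing the limit was not always enough); inconclusive = probably only some replicates passing the limit; inactive = the rest.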

system: Drosophila bursicon receptor LGR2 (rickets); assay: inhibitors of bursicon-induced LGR2 CRE-luciferase signal, primary screen, cell-based, HEK293, CRE-luciferase reporter, bursicon stimulation (AID 720647); settings: bursicon-stimulated, 4 h, at 9.99 µM, hits give high values;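 note: agonist challenge used bursicon conditioned medium at about half maximal strength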

Compound	inhibition
Cc1ccc(C(=O)Nc2ccc3c(c2)CCC3)cc1	inconclusive: 66.4%
O=C(NCCOc1ccccc1)[C@@H]1CCCN1C(=O)c1cccs1	inconclusive: -1.31%
CCOC(=O)[C@]12CCCC=C1N(Cc1ccc(Cl)cc1Cl)C(=O)[C@H](CC(=O)NCc1cccc(C(F)(F)F)c1)C2	inactive: 21.5%
Cc1cc2nc(N3C(=O)CNC3=S)sc2cc1C	inconclusive: 46.6%
N#Cc1ccc(/C=C/C(=O)c2cccnc2)cc1	active: 80.6%
CSc1ccc(C2NN=C(c3ccccc3)S2)cc1 (centres undefined)	active: 83.9%
c1ccc(-c2cn3nc4c(nc3n2)CCCC4)cc1	active: 68.4%
CCc1nnc(NC(=O)CSc2nnc3ncccn23)s1	inconclusive: 3.73%
COc1ccc(S(=O)(=O)Cc2ccc(C(=O)N3CCN(c4cc(C)ccc4C)CC3)o2)cc1	inactive: 4.85%
C[C@@H](c1ccccc1)N1C[C@@H](COCc2ccccc2)Oc2cc(N3CCC[C@H]3CO)ccc2S1(=O)=O	inconclusive: -9%
CCS(=O)(=O)N[C@@H]1C=C[C@H](CC(=O)NC2Cc3ccccc3C2)O[C@H]1CO	inactive: -5.24%
Cc1cc(C(=O)COc2ccccc2C(N)=O)c(C)n1CC1CCCO1 (centres undefined)	inactive: 14.9%
Cn1cc(CNCc2cnc3ccccn23)c(-c2ccc(Oc3ccccc3)cc2)n1	inactive: -18.3%
COc1ccccc1C=NNC(=O)c1ccncc1	inconclusive: 2.67%
O=C([C@H]1[C@H](CO)[C@H]2Cn3c(ccc(-c4cccnc4)c3=O)[C@H]2N1CC1CC1)N1CCCCC1	inactive: -6.49%
C[C@@H]1CN([C@H](C)CO)C(=O)c2c(c3ccccc3n2C)-c2ccccc2CO[C@@H]1CN(C)S(=O)(=O)c1ccc(C(F)(F)F)cc1	active: 52.7%
COc1ccc(-c2cc(-c3nnc(COC(=O)C4CC4)o3)c3ccccc3n2)cc1OC	inconclusive: 4.99%
CCc1nc2ccc(C(=O)Nc3cc(-c4ccccc4)ccc3OC)cn2c1N(C)Cc1nccs1	inconclusive: 76.7%
O=C(C[C@@H]1C/C=C\CC[C@@H](Cc2ccc(F)cc2)C(=O)OC[C@@H]2CCCN2C1=O)N[C@H](CO)Cc1ccccc1	inconclusive: 86.7%
C[C@@H]1CCCCO[C@H](CN(C)S(=O)(=O)c2cccs2)[C@@H](C)CN([C@H](C)CO)C(=O)c2cc(NS(=O)(=O)c3cn(C)cn3)ccc2O1	inactive: -0.998%
C[C@@H]1CN([C@@H](C)CO)C(=O)c2cc(NS(C)(=O)=O)ccc2O[C@@H](C)CCCCO[C@@H]1CN(C)Cc1ccc(C(F)(F)F)cc1	inconclusive: -5.21%
CC(C)C#Cc1cnc2c(c1)C(=O)N([C@H](C)CO)C[C@@H](C)[C@@H](CN(C)C(=O)Nc1ccc(F)cc1)O2	inactive: 3.31%
C[C@@H]1CN([C@@H](C)CO)C(=O)c2c(c3ccccc3n2C)-c2ccccc2CO[C@@H]1CN(C)CC1CC1	inactive: -5.68%
C[C@H](CO)N1C[C@H](C)[C@H](CN(C)C(=O)CN2CCOCC2)Oc2ncc(C#CCN(C)C)cc2C1=O	inconclusive: 87.6%
COc1cc(/C=C2\SC(N)=NC2=O)ccc1O	inconclusive: 38.2%
CN(C)c1ccc(-c2nc3cc(N)ccc3o2)cc1	inconclusive: 49%
COc1ccc(C(CC(=O)c2ccc(C)cc2)C(C#N)C#N)cc1OC (centres undefined)	active: 53.5%

Compound	inhibition
O=C(N/N=C/c1cn(-c2cccs2)nc1-c1ccccc1)c1ccccc1O	active: 73.7%
CCOc1ccc(-n2cc(-c3ccccc3)c3c(N4CCOCC4)ncnc32)cc1	inconclusive: 68.9%
COc1ccc(NC(=O)N(C)C[C@@H]2OCCCC[C@@H](C)Oc3ccc(NC(=O)Nc4c(C)noc4C)cc3C(=O)N([C@H](C)CO)C[C@H]2C)cc1	inactive: 14.6%
CO[C@@H]1CN(C)C(=O)c2cc(NC(=O)NC(C)C)ccc2OC[C@H](C)N(C(=O)CC2CC2)C[C@H]1C	inactive: 12.7%
COc1ccc(C(=O)NC(=O)Nc2cc(C)ccn2)cc1	active: 74.5%
CC(=O)Nc1ccc(-c2csc(NC(=O)Nc3ccccc3)n2)cc1	active: 94.1%
CCOc1cc(/C=N/Nc2nc3ccccc3[nH]2)cc(Br)c1OCC(=O)N(C)C	inconclusive: 49.9%
CCn1nnc2cc(C(=O)NCCc3ccccc3F)ccc21	active: 53.7%
CC1OC(CC(=O)O)CC2=C1C(=O)c1c(O)cccc1C2=O (centres undefined)	active: 98.8%
COc1ccc(-c2cc(C(F)(F)F)nc(S(=O)(=O)CCCC(=O)Nc3cccnc3Cl)n2)cc1OC	inconclusive: 49.4%
CC(C)Oc1ccc(Cc2cnc(=S)[nH]c2N)cc1	inconclusive: 20.5%
O=C(/C=C/c1ccccc1[N+](=O)[O-])c1ccccc1Br	inconclusive: 39.5%
COCC(=O)Nc1ccc2c(c1)OC[C@@H](C)N(C(=O)COC)C[C@@H](C)[C@@H](OC)CN(C)C2=O	inactive: -1.08%
Cn1c(=O)[nH]c(=O)c2c1nc([N+](=O)[O-])n2Cc1ccccc1	inconclusive: 37%
O=C(Nc1ccc(N2CCN(Cc3ccccc3F)CC2)cc1)c1ccc([N+](=O)[O-])o1	inactive: 13.3%
CC(=O)OC1CCC2(C)C(CCC3C4CC=C(C(C)=O)C4(C)OC(=O)CC32)C1 (centres undefined)	active: 107%
O=C(O)c1ccc(Nc2nc3c(s2)CCCC3)cc1	inconclusive: 40.5%
COc1cccc(-c2ncn(CCc3ccccc3OC)c2CC(C)C)c1	inconclusive: 48.9%
O=[N+]([O-])c1cc(S(=O)(=O)N2CCCCCC2)ccc1Cl	inconclusive: 32.1%
COc1ccc2c(C)nc(Nc3nc(-c4ccccc4)cc(=O)[nH]3)nc2c1	inconclusive: 60.2%
Cn1nnnc1Sc1ncnc2scc(-c3ccc4c(c3)OCO4)c12	inconclusive: 50.6%
CCNC(=O)[C@H]1[C@H](CO)[C@H]2Cn3c(ccc(-c4cncnc4)c3=O)[C@H]2N1C(=O)c1ccccc1F	inactive: 13.6%
O=C(Nc1nc2cc3c(cc2s1)OCCO3)c1ccco1	active: 98.3%
Cc1c(Br)cccc1NC(=O)C1(C)CCN1CCc1ccccc1 (centres undefined)	inconclusive: 3.83%
CN(C)c1ccc(-c2nc3ccccn3c2/N=C/c2ccc(Br)cc2)cc1	inconclusive: 62.3%
CCCCCc1ccc(OCCCC[n+]2cccc(C)c2)c(CCCCC)c1	inconclusive: 43.4%
CCCCCc1ccc(-c2ccc(C(=O)O)cc2)nc1	inconclusive: 81.1%

Compound	inhibition
O=C(/C=C\Nc1ccc2c(c1)OCO2)c1ccc2c(c1)OCO2	inconclusive: 62.7%
COc1cccc(-c2cc(NC=O)c3ncc(-c4cccc(C(=O)N(C)C)c4)n3c2)c1	inactive: -4.8%
CCOC(=O)c1c(C)n(-c2ccc(C)cc2)c2ccc(OCC(O)CNCCCO)cc12 (centres undefined)	inconclusive: 39.1%
C[C@H](CO)N1C[C@H](C)[C@H](CN(C)C(=O)Nc2ccc(F)cc2)Oc2c(NC(=O)Nc3cccc4ccccc34)cccc2C1=O	inactive: 23.6%
Nc1cccc2c1C(=O)N(CCOc1ccccc1F)C2=O	inconclusive: 15.1%
CCN1CCN(Cc2ccc(NC(=O)c3ccc(C)c(NC(=O)c4c[nH]c5cc(C(F)(F)F)ccc5c4=O)c3)cc2C(F)(F)F)CC1	inconclusive: 54.6%
COc1ccc(-c2nc(N)n(C(=O)c3cccs3)n2)cc1	inconclusive: -1.87%
O=C(Nc1ccc(NC(=O)c2ccco2)cc1)c1ccc2c(c1)OCO2	inactive: -25.6%
CC(C)(C)OC(=O)NCc1ccc(CNC(=O)c2[nH]cnc2C(=O)Nc2ccccc2F)cc1	inconclusive: 35.9%
O=C(Cc1cccs1)Nc1cccc(-c2nnc(-c3ccco3)o2)c1	inactive: -34.6%
COCC#Cc1ccc([C@@H]2[C@H]3CN(C(=O)CN(C)C)CCCCN3[C@H]2CO)cc1	inactive: 3.98%
COc1cc2sc3ccc(C#CC4(O)CCCCC4)cc3c(=O)c2cc1OC	active: 94.1%
COc1ccc(-n2ncc3c(N4CCC(C)CC4)ncnc32)cc1	inconclusive: 53.7%
C=CCNC(=O)c1c(Cl)nc(C)c([N+](=O)[O-])c1C	inconclusive: 70.6%
CO[C@@H]1CN(C)C(=O)c2ccc(NS(C)(=O)=O)cc2OC[C@H](C)N(Cc2cccnc2)C[C@@H]1C	inactive: 6.23%
O=C(c1cccs1)N1CCN(C(=O)c2cccs2)C1=S	inconclusive: 48.4%
C[C@H](CO)N1C[C@H](C)[C@@H](CN(C)C(=O)Nc2ccc(F)cc2)Oc2ccc(NS(=O)(=O)c3ccccc3)cc2C1=O	inactive: -0.861%
CC1CCN(C(=O)c2ccc(S(=O)(=O)Cc3cc(F)ccc3F)c([N+](=O)[O-])c2)CC1	inconclusive: 23.5%
C[C@H](CO)N1C[C@H](C)[C@H](CN(C)Cc2ccc(C(F)(F)F)cc2)Oc2ccc(NC(=O)Nc3ccccc3)cc2C1=O	inconclusive: -15.1%
Cc1ccccc1C(=O)Nc1ccc2c(c1)OCCO2	inconclusive: 38.6%
COc1cccc(NC(=O)c2cc3ccccc3o/c2=N\O)c1	inconclusive: 67.4%
COc1ccc(C(=O)Nc2nnc(SCC(=O)NCc3ccco3)s2)c(OC)c1	inconclusive: 36%
CN(C)CCCNC(=O)C[C@@H]1CC[C@@H](NS(=O)(=O)c2ccccc2)[C@H](CO)O1	inactive: 6.17%
NS(=O)(=O)c1ccc(N/N=C/c2ccccn2)c([N+](=O)[O-])c1	inactive: -9.19%
CNCc1ccccc1Sc1ccc(O)c(O)c1	inconclusive: 41.5%
